{"source": "PubChem BioAssay AID488969", "about": "(Vanderbilt High Throughput Screening Facility, 2010)", "note": "Whole data set: some 110,000 compounds, median “z-score” near -0.1, cut for the highest 2% near 2. The list shows a part of the results.", "data": [{"biological_target": "Metabotropic glutamate receptor 8 (Rattus norvegicus) (UniProt P70579)", "sequence (P70579 whole entry, looked up)": "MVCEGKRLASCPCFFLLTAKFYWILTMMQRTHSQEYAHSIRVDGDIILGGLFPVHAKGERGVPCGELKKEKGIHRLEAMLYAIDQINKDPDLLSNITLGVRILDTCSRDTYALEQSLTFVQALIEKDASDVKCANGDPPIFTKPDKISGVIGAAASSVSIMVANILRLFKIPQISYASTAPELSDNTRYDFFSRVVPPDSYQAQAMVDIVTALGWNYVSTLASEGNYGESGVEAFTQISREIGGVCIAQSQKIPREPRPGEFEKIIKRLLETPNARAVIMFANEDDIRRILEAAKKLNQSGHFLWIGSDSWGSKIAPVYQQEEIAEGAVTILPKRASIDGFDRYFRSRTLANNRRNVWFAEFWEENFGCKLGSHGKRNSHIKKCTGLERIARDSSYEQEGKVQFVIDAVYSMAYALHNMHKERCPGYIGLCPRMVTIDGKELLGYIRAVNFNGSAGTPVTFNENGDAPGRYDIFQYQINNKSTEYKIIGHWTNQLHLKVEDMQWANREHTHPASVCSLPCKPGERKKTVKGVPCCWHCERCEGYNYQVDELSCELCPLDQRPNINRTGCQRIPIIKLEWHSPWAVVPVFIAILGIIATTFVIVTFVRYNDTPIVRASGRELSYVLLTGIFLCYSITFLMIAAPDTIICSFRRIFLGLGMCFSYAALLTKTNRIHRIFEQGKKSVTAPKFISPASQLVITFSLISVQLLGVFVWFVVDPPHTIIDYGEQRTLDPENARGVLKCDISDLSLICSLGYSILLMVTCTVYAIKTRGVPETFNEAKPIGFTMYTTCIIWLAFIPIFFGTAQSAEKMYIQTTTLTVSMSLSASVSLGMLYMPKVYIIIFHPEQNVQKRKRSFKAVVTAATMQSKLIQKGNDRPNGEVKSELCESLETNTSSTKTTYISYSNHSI", "assay": "rat mGluR8 modulators via GIRK flux, primary screen, cell-based, thallium flux, HTS (AID 488969)", "settings": "HEK293 rat mGluR8, GIRK (G protein-gated inwardly rectifying potassium channel) thallium flux, FluoZin2; at 10 µM; stronger effect = higher value; submaximal glutamate (EC20) added with thallium", "values": [{"smiles": "Cc1cc(=O)oc2cc(OCC(=O)N3CCc4ccccc4C3)ccc12", "z-score": 0.0165}, {"smiles": "Cc1cccc(OCC(=O)N/N=C\\C=C\\c2ccc3c(c2)OCO3)c1C", "z-score": -0.127}, {"smiles": "O=C1Nc2ccccc2C12OCCCO2", "z-score": 0.489}, {"smiles": "Cc1cccc(N2CCN(C(=O)c3cc4c(=O)n(C)c5ccccc5c4n3C)CC2)c1C", "z-score": -0.508}, {"smiles": "Cc1sc2ncnc(NCC3CCCO3)c2c1C", "note": "(centres undefined)", "z-score": -0.159}, {"smiles": "COc1ccc(Br)cc1S(=O)(=O)N1CCN=C1C", "z-score": -1.32}, {"smiles": "O=C(Nc1ccccc1)C1CCCN(S(=O)(=O)c2ccc(-n3cnnn3)cc2)C1", "note": "(centres undefined)", "z-score": 0.136}, {"smiles": "COC(=O)c1scc(C)c1N/N=C(\\C)c1ccc(F)cc1", "z-score": -0.0161}, {"smiles": "CCOC(=O)c1c(C)[nH]c(O)c1C=Nc1ccccc1", "z-score": -0.648}, {"smiles": "O=C(CN(CC1CCCO1)S(=O)(=O)c1ccc(S(=O)(=O)NCC2CCCO2)cc1)Nc1ccccc1", "note": "(centres undefined)", "z-score": 0.361}, {"smiles": "CC(C)Sc1nnc([C@H](Cc2c[nH]c3ccccc23)NC(=O)OC(C)(C)C)o1", "z-score": -0.0825}, {"smiles": "Cc1ccc(NC(=O)C(=O)c2c(-c3ccccc3)cc3ccccn23)cc1S(=O)(=O)N1CCOCC1", "z-score": -0.619}, {"smiles": "CC(C)CC(=O)c1c[nH]c(C(=O)NCCCn2ccnc2)c1", "z-score": 0.0582}, {"smiles": "O=C(COc1ccc(Cl)cc1)OCC(=O)N1CCCCCC1", "z-score": -1.1}, {"smiles": "O=C(CSc1cc([N+](=O)[O-])cc(S(=O)(=O)Cc2ccccc2)c1)NC1CC1", "z-score": -0.31}, {"smiles": "Cn1cc(/C=C2\\SC(=S)N(NC(=O)c3ccccc3Cl)C2=O)c2ccccc21", "z-score": -0.389}, {"smiles": "CCOC(=O)C1CCCC(NS(=O)(=O)c2ccc(NC(C)=O)cc2)C1", "note": "(centres undefined)", "z-score": -0.169}, {"smiles": "COc1ccc(NC(=O)NCc2ccncc2)c(OC)c1", "z-score": -0.842}, {"smiles": "Cc1cccn2c(=O)c(/C=C(\\C#N)C(=O)NC3CCS(=O)(=O)C3)c(N3CCC(C(N)=O)CC3)nc12", "note": "(centres undefined)", "z-score": -0.802}, {"smiles": "CCn1c(CNC(=O)c2ccc3c(c2)OCO3)nnc1SCC(=O)Nc1cc(C)ccc1OC", "z-score": -0.48}, {"smiles": "NC(=O)C1CCN(CC(=O)Nc2ccccn2)CC1", "z-score": 0.329}, {"smiles": "Cc1ccc(C(=O)ONc2ccc(N=NC(=O)c3ccccc3O)cc2)cc1", "z-score": 1.17}, {"smiles": "O=C(COc1ccc(Br)cc1Cl)NC(=S)N1CCc2ccccc21", "z-score": 2.28}, {"smiles": "O=C(NCc1n[nH]c(=S)n1-c1ccccc1)c1ccco1", "z-score": 0.53}, {"smiles": "CCCCc1c(O)n2c(nc3ccccc32)[nH]c1=O", "z-score": -0.934}, {"smiles": "Cc1cccc(C(=O)NC2CC3CCCC(C2)N3C(=O)NC2CCCCC2)c1", "note": "(centres undefined)", "z-score": 0.405}, {"smiles": "S=c1[nH]nc([C@@H]2C[C@H]2c2ccccc2)n1-c1ccccc1", "z-score": -0.292}, {"smiles": "C=CCNC(=O)c1ccc(Cn2c(=S)[nH]c3cc4c(cc3c2=O)OCO4)cc1", "z-score": 0.00824}, {"smiles": "COC(=O)/C=C/c1ccc(OC(=O)OC)c(OC(=O)OC)c1", "z-score": -0.0752}]}]}
